PubChem BioAssay (Tox21)
The inconclusive results got no clear call from the source; some entries with a clear call stand among them for comparison. For some of these results: Potencies beside an inconclusive call are fits to weak or partial responses and may not hold up. Active and inactive are the calls of the source. Unless noted, the call rests on the fitted dose curve; in most records, active means well fitted curve in the direction sought with a large enough effect in the repeat runs; inconclusive means weak or mixed curves; inactive means no such curve, though single readings can be large; an effect the other way counts as inactive or inconclusive. Non-standard residues stand in square brackets, D forms with d. Residues, ends and D or L forms follow the SMILES beside them. pGlu = O=C1CC[C@@H](C(=O)O)N1

What was measured:
[1] = qHTS assay to identify small molecule antagonists of the constitutive androstane receptor (CAR) signaling pathway - cell viability counter screen (AID 1224837); further: nearly all actives have a fitted effect of over 45% in size; further: potency means the concentration at half of the fitted maximal effect; on activity change, negative = cytotoxicity: on the % scale 0 is the no-effect control and ±100 the full control effect
Outline: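 Cytotoxicity counter-screen: CellTiter-Fluor fluorescence after 23 h compound exposure (15-point qHTS) in double-stable HepG2-CYP2B6-hCAR cells, with 50 nM CITCO added.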

[2] = qHTS assay to identify small molecule agonists of H2AX (AID 1224845; active means well fitted activation curve with a large enough effect in the signal ratio in the repeat runs, not every such curve was filed as active; inconclusive means weak or mixed curves; the % refers to the signal ratio; further: potency means the concentration at half of the fitted maximal effect; on activation (H2AX phosphorylation): on the % scale 0 is the no-effect control and ±100 the full control effect); settings: CHO-K1 phospho-H2AX Ser139 HTRF, 3 h; activation (H2AX phosphorylation): at 154 µM (top of the series) unless noted
Outline: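 Phospho-H2AX Ser139 measured by HTRF (ex 320 nm; em 665 and 620 nm) after 24 hr antibody incubation. Compounds, 15 concentrations, 0.76% DMSO, were applied to CHO-K1 cells for 3hr at 37C before lysis.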

[3] = qHTS assay to identify small molecule agonists of the hypoxia (HIF-1) signaling pathway (AID 1224846; active means well fitted activation curve with a large enough effect in the signal ratio in the repeat runs, not every such curve was filed as active; inconclusive means weak or mixed curves; the % refers to the signal ratio; further: potency means the concentration at half of the fitted maximal effect; on activation: on the % scale 0 is the no-effect control and ±100 the full control effect); settings: HRE-bla ME-180 cells, beta-lactamase ratio, 17 h; activation: at 76.8 µM (top of the series) unless noted
Outline: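 Compounds added to ME-180 cells carrying hypoxia-response-element beta-lactamase reporter (0.5% dialyzed FBS, 5 h preplating), 17 h at 37C; agonist activity detected by CCF4-AM B/G FRET read-out.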

[4] = qHTS assay to identify small molecule agonists of H2AX - cell viability counter screen (AID 1224847; calls by dose curve; further: potency means the concentration at half of the fitted maximal effect; nearly all actives have a fitted effect of over 30% in size)
Outline: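 Read-out: CellTiter-Glo luminescence, 30 min RT. Cells: wild-type CHO-K1, 1000/well, 10% FBS, plated overnight at 37C. Treatment: 15 concentrations, 3 hr, 37C, 0.76% DMSO.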

[5] = qHTS RealTime-Glo MT Cell Viability Assay in HepG2 cells - 24 hour (AID 1224867); further: potency means the concentration at half of the fitted maximal effect; nearly all actives have a fitted effect of over 50% in size
Outline: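 Viability was tracked continuously by NanoLuc luminescence from prosubstrate reduced by living HepG2 cells, at successive time points over 40 h of compound exposure. Cells with reagent were preincubated 5 h at 37 °C before compound addition.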

[6] = molecular target: Nuclear receptor subfamily 1 group I member 3 (Homo sapiens) (UniProt Q14994); assay: qHTS assay to identify small molecule antagonists of the constitutive androstane receptor (CAR) signaling pathway (AID 1224838);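 further: HepG2 cells stably expressing hCAR with CYP2B6 luciferase reporter stimulated by CITCO; nearly all actives have a fitted effect of over 40% in size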; further: potency means the concentration at half of the fitted maximal effect
UniProt Q14994, sequence (Q14994 whole entry, looked up): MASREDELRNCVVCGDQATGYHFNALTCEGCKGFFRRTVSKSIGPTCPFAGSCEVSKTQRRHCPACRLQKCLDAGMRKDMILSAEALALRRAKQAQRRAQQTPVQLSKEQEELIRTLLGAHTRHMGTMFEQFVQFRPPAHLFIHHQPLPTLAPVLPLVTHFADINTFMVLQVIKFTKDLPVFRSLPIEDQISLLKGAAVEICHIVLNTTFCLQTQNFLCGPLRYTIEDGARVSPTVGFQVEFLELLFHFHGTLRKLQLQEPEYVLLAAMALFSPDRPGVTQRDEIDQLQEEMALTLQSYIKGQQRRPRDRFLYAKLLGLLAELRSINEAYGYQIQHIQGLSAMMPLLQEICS
Outline: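 Antagonism measured as luciferase signal (ONE-Glo, 30 min, room temperature) in CAR-stimulated cells: HepG2-CYP2B6-hCAR double-stable line exposed 24 hr at 37 C to compound in a 15-point series plus 50 nM CITCO.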

[7] = qHTS assay to identify small molecule antagonists of the estrogen related receptor signaling pathway with the pleiotropic PPARgamma coactivator (PGC) from Tox21 10K library (AID 1224841; call rule not given here; further: potency means the concentration at half of the fitted maximal effect; actives are mostly falling curves and most rising ones were filed inactive; nearly all actives have a fitted effect of over 50% in size)
Outline: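 Luminescence (One-Glo, 30 min at room temperature) after 18 h compound treatment at 37 C of PGC/ERR reporter cells plated at 2,000 cells/well and settled 6 h beforehand.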

[8] = qHTS assay to identify small molecule antagonists of the estrogen related receptor (ERR) signaling pathway from Tox21 library (AID 1224848); further: on the % scale 0 is the no-effect control and ±100 the full control effect; nearly all actives have a fitted effect of over 50% in size
Outline: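 Luciferase luminescence (ONE-Glo, 30 min room temperature) was the read-out. Cells of the NTP-supplied ERR line, 2,000 per well, were given 6 h at 37 C before compound addition in DMSO and 18 h exposure at 37 C.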

[9] = molecular target: Nuclear receptor subfamily 1 group I member 3 (Homo sapiens) (UniProt Q14994); assay: qHTS assay to identify small molecule agonists of the constitutive androstane receptor (CAR) signaling pathway (AID 1224839); further: potency means the concentration at half of the fitted maximal effect; nearly all actives have a fitted effect of over 15% in size
Outline: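 In this screen, CAR-driven CYP2B6 promoter activity is measured by luminescence in HepG2-CYP2B6-hCAR cells after 24 h with test compounds and 0.75 uM PK11195 (final concentration).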

[10] = molecular target: Thyrotropin receptor (Homo sapiens) (UniProt P16473); assay: qHTS assay to identify small molecule agonists of the thyroid stimulating hormone receptor (TSHR) signaling pathway (AID 1224843; calls by dose curve; further: potency means the concentration at half of the fitted maximal effect; nearly all actives have a fitted effect of over 45% in size); settings: TSHR-HEK293 cells, cAMP HTRF, agonist mode, 30 min; activation: at 92.4 µM (top of the series) unless noted
UniProt P16473, sequence (P16473 whole entry, looked up): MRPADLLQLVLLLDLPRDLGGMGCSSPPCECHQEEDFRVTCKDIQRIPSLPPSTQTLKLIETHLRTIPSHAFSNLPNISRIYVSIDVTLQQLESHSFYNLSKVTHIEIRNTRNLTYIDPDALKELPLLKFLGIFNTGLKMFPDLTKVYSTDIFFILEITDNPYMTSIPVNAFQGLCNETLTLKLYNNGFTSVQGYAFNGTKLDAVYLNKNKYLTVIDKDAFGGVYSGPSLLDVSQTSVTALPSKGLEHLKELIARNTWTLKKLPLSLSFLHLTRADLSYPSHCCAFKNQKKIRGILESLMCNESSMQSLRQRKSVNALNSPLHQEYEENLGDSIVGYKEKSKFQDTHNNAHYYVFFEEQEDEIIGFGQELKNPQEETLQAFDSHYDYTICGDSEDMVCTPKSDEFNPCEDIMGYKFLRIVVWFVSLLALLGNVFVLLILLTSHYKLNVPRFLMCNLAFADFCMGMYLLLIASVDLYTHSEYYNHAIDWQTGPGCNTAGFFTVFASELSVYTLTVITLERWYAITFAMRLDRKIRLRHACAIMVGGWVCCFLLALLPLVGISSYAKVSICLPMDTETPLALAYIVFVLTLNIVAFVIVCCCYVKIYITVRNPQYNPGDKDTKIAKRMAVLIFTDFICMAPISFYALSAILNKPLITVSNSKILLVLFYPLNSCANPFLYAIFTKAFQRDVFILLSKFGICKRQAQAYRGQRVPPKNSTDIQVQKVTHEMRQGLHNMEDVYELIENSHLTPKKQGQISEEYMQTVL
Outline: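 Agonist activity read as cAMP rise via d2/cryptate HTRF competition, 1 h room-temperature detection, in HEK293 cells expressing TSHR. Fifteen-point titrations, each run in triplicate, with a 30 min room-temperature incubation beforehand.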

[11] = qHTS assay to identify small molecule agonists of the hypoxia (HIF-1) signaling pathway - cell viability counter screen (AID 1224844; calls by dose curve; further: potency means the concentration at half of the fitted maximal effect; nearly all actives have a fitted effect of over 50% in size)
Outline: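 Cytotoxicity measured by CellTiter-Glo ATP luminescence in the wells also read for beta-lactamase signal. Cells were HRE-bla ME-180 (2,000/well, 0.5% dialyzed FBS), exposed to compounds for 17 h at 37C.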

[12] = A CellTox Green Cytotoxicity Assay to monitor cytotoxicity in HEK293 cells - 0 hour (AID 1224869)
Outline: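 Fluorescence from a DNA-binding dye excluded by viable cells was measured repeatedly in the same HEK293 wells (600 cells/well) during continuous compound exposure at 37 C. Each assay gives one read point: 0, 8, 16, 24, 32 or 40 h.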

[13] = qHTS assay to identify small molecule agonists of the estrogen related receptor (ERR) signaling pathway from Tox21 library (AID 1224849; calls by dose curve; further: on the % scale 0 is the no-effect control and ±100 the full control effect; nearly all actives have a fitted effect of over 15% in size); settings: ERR reporter cell line, ONE-Glo luciferase, 18 h; at 8.39 µM (top of the series)
Outline: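 Luminescent agonist read-out (One-Glo, 30-minute room-temperature incubation) following 18-hour compound treatment at 37 C of the ERR cell line, which had been plated 6 hours before dosing.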

[14] = qHTS RealTime-Glo MT Cell Viability Assay in HEK293 cells - 32 hour (AID 1224868); further: nearly all actives have a fitted effect of over 50% in size; further: potency means the concentration at half of the fitted maximal effect; on activity change, negative = cytotoxic: top concentration of the series differs between compounds; on the % scale 0 is the no-effect control and ±100 the full control effect
Outline: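 Viability tracked continuously by luminescence as live cells reduce a prosubstrate for NanoLuc; HEK293 cells preincubated 5 h, compound-treated at 37 C, and read at 0, 8, 16, 24, 32 and 40 h.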
Tags describe the fitted curve by direction and shape or compound fluorescence and quenching.

## C=CC(=O)OCC(C)OCC(C)OCC(C)OC(=O)C=C (stereo unspecified)
[1]
  Potency: inconclusive: 61.1 µM [cytotoxic]
[2]
  Potency: active: 101 µM
[3]
  Potency: inconclusive: 54.9 µM
[4]
  Potency: inconclusive: 89.8 µM [rising, partial curve]
[5]
  Potency: inconclusive: 43.6 µM [falling, partial curve]

## Cc1ccccc1C(=O)N1CC/C(=N\OS(=O)(=O)O)c2ccc(Cl)cc21
[6]
  Potency: inconclusive: 11.9 µM [inhibitor, partial curve]
[7]
  Potency: inconclusive: 13.3 µM [falling, partial curve, poor fit]
[2]
  activation (H2AX phosphorylation): inconclusive: -12.1% [at 70.9 µM]

## CCNC(=O)[C@@H]1CCCN1C(=O)[C@H](CCCN=C(N)N)NC(=O)[C@H](CC(C)C)NC(=O)CNC(=O)[C@H](Cc1ccc(O)cc1)NC(=O)[C@H](CO)NC(=O)[C@H](Cc1c[nH]c2ccccc12)NC(=O)[C@H](Cc1cnc[nH]1)NC(=O)[C@@H]1CCC(=O)N1 ([pGlu]HWSYGLRP-NHEt)
[1]
  Potency: inactive
[8]
  Potency: inactive

## CC(C)Cc1nccs1
[1]
  Potency: inactive
[2]
  Potency: inactive

## CCCCCCCCCCCCOCCO
[6]
  Potency: inactive
[9]
  Potency: inconclusive: 48.6 µM [activator, partial curve]
[10]
  Potency: inconclusive: 13.7 µM [inhibitor, full curve]
[11]
  Potency: inconclusive: 54.9 µM [cytotoxic, single point]
[3]
  Potency: inconclusive: 54.9 µM [single point]

## CN(C)CCCN
[1]
  Potency: inactive
[3]
  Potency: inactive
[12]
  Potency: inactive

## CCOC(=O)CC(=O)c1ccccc1
[1]
  Potency: inactive
[3]
  Potency: inactive

## CCCCCCCCCCCCCCCCCCCl
[1]
  activity change, negative = cytotoxicity: inactive: 3.1% [at 8.39 µM]
[13]
  activity change, positive = activation: inconclusive: 12%
[14]
  activity change, negative = cytotoxic: inactive: -2.36% [at 6.97 µM]

## CCN1CCN(c2cc3c(cc2F)c(=O)c(C(=O)O)cn3C2CC2)CC1
[6]
  Potency: inactive

## C1CSCCS1
[6]
  Potency: inconclusive: 68 µM [inhibitor, single point]

## OC(CCCN1CCCCC1)(c1ccccc1)c1ccccc1
[6]
  Potency: inconclusive: 33.5 µM [inhibitor, partial curve]

## Cc1c(-c2ccccc2)oc2c(C(=O)OCCN3CCCCC3)cccc2c1=O
[1]
  Potency: inactive
[2]
  Potency: inactive
[14]
  Potency: inconclusive: 23.9 µM [cytotoxic, single point]
